Measured values taken from paper PMC7562919.
Residue numbers refer to the chain shown, from its start. Where two headings read alike, the source gives them in different places. These are yes or no findings as the source states them, for the method shown. Binding seen in cells or lysates may run through a third protein. Some binding calls cover weakened binding; strength is not graded here. Where a sequence is shown, tags or fusion partners need not be part of it.

Amino acid sequences for entries named in this document (tags omitted).
UniProt Q39255: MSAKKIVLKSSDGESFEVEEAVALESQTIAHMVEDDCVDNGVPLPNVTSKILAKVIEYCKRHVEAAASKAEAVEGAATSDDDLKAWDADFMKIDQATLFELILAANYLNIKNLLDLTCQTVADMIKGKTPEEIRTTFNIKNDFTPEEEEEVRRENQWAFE

Assays:
[1] = biological target: T1, SUSA2-NLuc (Arabidopsis thaliana) (UniProt Q9FKT0); assay: split reporter; split-luciferase; CLuc and NLuc fusions co-infiltrated into N. benthamiana leaves at OD600 = 0.2, luciferin infiltrated after 48 h
T1 sequence: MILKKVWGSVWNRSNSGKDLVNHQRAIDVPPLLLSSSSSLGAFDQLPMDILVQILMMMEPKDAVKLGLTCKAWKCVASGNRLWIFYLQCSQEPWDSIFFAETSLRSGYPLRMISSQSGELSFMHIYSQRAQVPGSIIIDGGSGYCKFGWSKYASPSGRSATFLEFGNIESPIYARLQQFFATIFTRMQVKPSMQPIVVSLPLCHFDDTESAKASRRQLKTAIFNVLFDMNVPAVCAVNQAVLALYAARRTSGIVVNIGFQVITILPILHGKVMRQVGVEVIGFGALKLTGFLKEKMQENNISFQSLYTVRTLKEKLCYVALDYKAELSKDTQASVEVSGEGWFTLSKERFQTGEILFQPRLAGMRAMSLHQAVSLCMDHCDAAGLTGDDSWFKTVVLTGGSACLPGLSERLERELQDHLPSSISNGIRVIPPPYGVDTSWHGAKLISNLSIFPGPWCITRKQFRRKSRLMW

[2] = biological target: T2, SUSA2-FLAG (Arabidopsis thaliana) (UniProt Q9FKT0); assay: co-IP; Arabidopsis stable transgenic lines carrying both transgenes; for CHS1-HA and TN2-HA in Col-0, hsp90.3-1 and sgt1b backgrounds
T2 sequence: T1 sequence

[3] = biological target: T3, DN-SUSA2-NLuc (Arabidopsis thaliana) (UniProt Q9FKT0); assay: split reporter; split-luciferase; CLuc and NLuc fusions co-infiltrated into N. benthamiana leaves at OD600 = 0.2, luciferin infiltrated after 48 h
T3 sequence: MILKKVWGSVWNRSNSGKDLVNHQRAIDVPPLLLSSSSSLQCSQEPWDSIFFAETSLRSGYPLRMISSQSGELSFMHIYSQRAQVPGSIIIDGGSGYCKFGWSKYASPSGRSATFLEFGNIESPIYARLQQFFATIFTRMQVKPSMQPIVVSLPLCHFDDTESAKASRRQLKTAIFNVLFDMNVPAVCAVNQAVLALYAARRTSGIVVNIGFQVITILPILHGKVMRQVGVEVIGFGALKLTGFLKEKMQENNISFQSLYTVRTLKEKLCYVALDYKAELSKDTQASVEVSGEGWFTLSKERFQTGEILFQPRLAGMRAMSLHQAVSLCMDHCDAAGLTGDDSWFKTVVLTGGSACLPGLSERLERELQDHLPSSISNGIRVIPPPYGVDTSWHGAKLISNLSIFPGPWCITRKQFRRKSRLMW

[4] = biological target: T4, DN-SUSA2-FLAG (Arabidopsis thaliana) (UniProt Q9FKT0); assay: co-IP; proteins transiently co-expressed in N. benthamiana leaves, harvested after 48 h; GTEN buffer (25 mM Tris-HCl pH 7.5, 150 mM NaCl, 1 mM EDTA, 0.15% NP-40, 10 mM DTT); FLAG-tagged protein precipitated with anti-FLAG M2 beads, 3 h at 4 °C; western blot
T4 sequence: T3 sequence

[5] = biological target: T2, SUSA2-FLAG (Arabidopsis thaliana); assay: co-IP; Arabidopsis stable transgenic lines carrying both transgenes; for CHS1-HA and TN2-HA in Col-0, hsp90.3-1 and sgt1b backgrounds; remark: listed apart in the source
[6] = biological target: T5, SAUL1-C29A-FLAG (Arabidopsis thaliana) (UniProt Q9LM76); assay: co-IP; proteins transiently co-expressed in N. benthamiana leaves, harvested after 48 h; GTEN buffer (25 mM Tris-HCl pH 7.5, 150 mM NaCl, 1 mM EDTA, 0.15% NP-40, 10 mM DTT); FLAG-tagged protein precipitated with anti-FLAG M2 beads, 3 h at 4 °C; western blot
T5 sequence: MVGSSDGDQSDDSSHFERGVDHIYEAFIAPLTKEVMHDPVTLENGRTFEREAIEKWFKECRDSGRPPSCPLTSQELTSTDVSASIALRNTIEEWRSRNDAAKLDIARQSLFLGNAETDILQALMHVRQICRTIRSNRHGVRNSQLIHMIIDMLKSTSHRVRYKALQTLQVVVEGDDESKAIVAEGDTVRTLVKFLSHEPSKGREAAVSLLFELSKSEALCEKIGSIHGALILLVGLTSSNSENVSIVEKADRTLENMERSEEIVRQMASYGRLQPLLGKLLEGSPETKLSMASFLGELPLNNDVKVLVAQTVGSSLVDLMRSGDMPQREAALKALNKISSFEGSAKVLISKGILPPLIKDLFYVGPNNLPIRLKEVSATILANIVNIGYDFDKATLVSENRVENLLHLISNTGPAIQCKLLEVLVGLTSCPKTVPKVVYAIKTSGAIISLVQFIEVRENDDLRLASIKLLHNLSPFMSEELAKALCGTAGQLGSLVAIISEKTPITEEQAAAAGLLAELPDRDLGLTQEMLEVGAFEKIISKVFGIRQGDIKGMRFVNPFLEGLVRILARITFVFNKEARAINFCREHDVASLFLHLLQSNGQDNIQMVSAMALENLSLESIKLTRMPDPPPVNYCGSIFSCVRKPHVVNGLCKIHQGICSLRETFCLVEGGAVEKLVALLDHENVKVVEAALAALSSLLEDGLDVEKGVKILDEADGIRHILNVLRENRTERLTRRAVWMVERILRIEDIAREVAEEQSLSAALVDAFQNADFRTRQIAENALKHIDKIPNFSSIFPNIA

ASK1-CLuc (from UniProt Q39255 1-160)
binding [1]: binds

ASK1-HA (from UniProt Q39255 1-160)
binding [2]: binds

B1: SGT1b-CLuc (protein, UniProt Q9SUT5 1-358)
chain: MAKELAEKAKEAFLDDDFDVAVDLYSKAIDLDPNCAAFFADRAQANIKIDNFTEAVVDANKAIELEPTLAKAYLRKGTACMKLEEYSTAKAALEKGASVAPNEPKFKKMIDECDLRIAEEEKDLVQPMPPSLPSSSTTPLATEADAPPVPIPAAPAKPMFRHEFYQKPEEAVVTIFAKKVPKENVTVEFGEQILSVVIDVAGEEAYHLQPRLFGKIIPEKCRFEVLSTKVEIRLAKAEIITWASLEYGKGQSVLPKPNVSSALSQRPVYPSSKPAKDWDKLEAEVKKQEKDEKLDGDAAMNKFFSDIYSSADEDMRRAMNKSFAESNGTVLSTNWKEVGTKKVESTPPDGMELKKWEY
binding [3]: binds weakly

B2: CHS1-HA (protein, UniProt F4I902 1-420)
chain: MSTSYSFLLAGRELDVFLSFSGKIALDVDFGYDLSRNGIKAFKSESWKESSFKPIDLRTLEALTESKVAVVMTSDEEVSSVGFLEELIVIIEFQEKRSLTVIPVFLTKHPLDVEKVSQIFPERAKIWRTAIAKLDNIAAQYSFSRNLAVMHGTHRIKQIADDIRLMFLSSASSDFKGLAGMDRHMKALYALLALESDEKVRTIGIWGSSGVGKTTLARYTYAEISVKFQAHVFLENVENMKEMLLPSENFEGEDLRSVNHEMNEMAEAKQKHRKVLLIADGVNNIEQGKWIAENANWFAPGSRVILITQEKSLLVQSGVNHVYEVGSLRYDEALQLFSRFAFKQPYPSPDFERLSVRAVQLAGFLPVTIRLFGSFLTGRDKEEWEATLLKLNAKQGKDIKEVWKIMEALEDKDIVEASQR
binding [4]: binds

B3: CHS1-Turbo-HA (protein, UniProt F4I902 1-420)
chain: B2 chain
binding [4]: binds

B4: CHS1-HA (Arabidopsis stable transgenic lines) (protein, UniProt F4I902 1-420)
chain: B2 chain
binding [5]: binds

B5: HA-SAUL1 (protein, UniProt Q9LM76 1-801)
chain: T5 sequence with A29C
binding [4]: no binding

B6: SUSA2-HA (protein, UniProt Q9FKT0 1-471)
chain: T1 sequence
binding [6]: no binding
